From the supplement of paper PMC12632987
Over roughly 2,300 sequences, “median log2 fold change of GCK-ALFA target abundance (FLAG IP / Myc IP barcode read proportion)” has its median near 0.095; the lowest 2% begin near -0.47. This is one part of the list.

B1: LC3A_28_732 (protein)
chain: SELDESIEKALAEAKEAAKKGEETVITIKVPGTATEEDIEKVIKAMEEIAEITKDLKSTAIIIDLDGKVPQEYIDKLADKADEIEKKYPNVTVIIALDEE
B2: LC3A_3_1726 (protein)
chain: MEERLAAARERLEALGYSPEVLAAALATVEALLERGLEEQVEKLLAALEKIKDADQEVILAGLQDILALVETSTLSKEELAKEVEEEINTLLHDGEIEEL
B3: LC3A_13_345 (protein)
chain: TVTIEAETAEELLKKGTAALEAHPGEKIKITVTIRDEEEAEAVAKALKELIDLAIEKGNTLDITLKGKRDLVLFAELELGAYIAEVLGKADVTVTGVETP
B4: LC3A_3_1561 (protein)
chain: AEELLKETLEELRKAGASEEVLEAVRKAAEALIEKGYEEALKTFAEELRKLLHLPDEYLLEFAEEVLEMVETEDLNEEEVIEEIKRIARTVRNDAEIIEL
B5: LC3A_102_163 (protein)
chain: ELEKLKEELLKKALERLEKLLAKDKSVSEEEKKEILETAREALLAAFENTVTEEQHGYTDIVAEDKLLDNLEYLKEKSEEYAKLVEESIEELRKAVKEKL
B6: LC3A_128_223 (protein)
chain: NELVKEALEELERALEDLKKIATTPELKKLVKEAEKKLKEAKKLVKEGAPLEEIKKALEEALKIAKEAIKLAEEKGVPNTVALNAAEIDLAEAEELLQKI
B7: LC3A_13_335 (protein)
chain: TIKIEVETPEELREKVLKAIEENPGETIEITVTVKTEEEVDKFAEALEEIIDKAIEKGNSLKITIKGKRDNVLELSLLVGSYIAEHIDEADVTLEEEILP
B8: LC3A_3_1626 (protein)
chain: GEERLEETLAELRAAGHSEETLEAFRRAGEALAERGYEEALETLIEEVRELLDLPDDILLWFLEEVLRAVEEEDLDEEEVIERIREEARIARNEAEIIEL
B9: LC3A_28_1314 (protein)
chain: MSIKEQFEKAIKEVKEAAEKGEPVVVTIDISAEDAEKHLEEILKLLEELAEEASKAPGATIIIDLDEKVDPENQQKIIDKGEELEKKYPNVTIIFAIEDN
B10: LC3A_102_146 (protein)
chain: SQLEELEKLREEALARADEIAAAVAAEDPARAAELRALLHEGIDALFENARTQIEHGYTDIVAEDRFLEALDRLRALGDEAGVALLEETEKRAKELVEKA
B11: LC3A_free_0_2119 (protein)
chain: KKTVVEVVVILDESVDEETAEKIHKELTKKAEELAKKYGGKLKSSLSKSDGRYIITIEITFDTEDIDLALEVERELVKIAEEILKKAGVEATIYSSVYLE
B12: LC3A_141_381 (protein)
chain: MEKKFEARFTEEQADELFEFFEEVEKEAKKMIKESGGKPVKVEVKITATNPETGEVVEEEETDIVTEENVDLVMDGYEIKALSMLLRVGGEVEVEVKLKV
B13: LC3A_132_328 (protein)
chain: SDATYAKLKAELTAKLTEAKANVDDLEKVEALNKEARALLAQAEKEVSPAQVAELYRLAADLWDEVADAAEAAGKEDVELLASGAAVEAEARAIRAEEKI
B14: LC3A_free_46_2417 (protein)
chain: WKGTVEADLYGATEEQVEEIKKEVEEKAKELSEKYGVEVKVEIEVEKNEDGTYFVKIKVTIEGEDKETVQKAADEMVDKLEEIADKKGVAMIISVDIEEA
B15: LC3A_3_1367 (protein)
chain: MEERIAATLARLRAAGRSEETLEAVRRAAEALAEKGYEEALETFLALMLELAHLPDELLLWFAEEVLAAVEAGELSEEELIEFIREEARVARSAAEIEEL
B16: LC3A_free_46_2376 (protein)
chain: YKIEIDIYFSAMSKEKAEEMAEEIKKAAEEISKKTGVKIEVEVKIITDENGETWLEVKVTIEGEDKEKALKAATELIDKFDEIAEKHGVSLIISVEEIDE
B17: LC3A_3_1604 (protein)
chain: GEALVAALLARLRAAGLAEPVLAAAERALRALAARGYAEAAETLAAELLAAADLPEELLVATLEELLEIVETEDLTEEELIAEIEELFRVARLEAEIEEL
B18: LC3A_132_259 (protein)
chain: SEELFEKALKELKELLDEIVKALQEGKDPMPLVVKLDETAEKYAEKLSLEDTEKLAEEAKKYAKELFEKNLDPNNEEARRVLDIVEMLLEGVLIEKELRD
B19: LC3A_28_909 (protein)
chain: SAVDAAVAAAIAEARAAAARGEPAVVTLTIDHEDVAEAEAAARAALTRLKEVALELPGLTIIVDVPEHIADAVTAVADEVQAELDKANPSNHIIVAVEEP
B20: LC3A_free_39_2252 (protein)
chain: SAAEEAAAKERLEAIKASVSPEVAAEIDELVAAAKAIGLPLAFVAEQVERLVNSGLSEEDLIATLREMVAALKAHADDPEAARAALEEITREAVNLIPLD
B21: LC3A_3_1686 (protein)
chain: MDELVKEVLEEAKKNGYSEETLKALEKLLKKLKERGYENAIKEILEEIKELKNAPSELWKDMFEDLLHKVETEDLSEEEIVEEIKKEARVIKNELEIEEL
B22: LC3A_free_46_2370 (protein)
chain: MVIYAYAYKEGWTEEEAKELLEEIKEGIKEIAKELGVEVKIKGKVVKNKDGSYLVEVEIEIKAPTKELAEEAAKKIIEKLDEIAEKNGAAVIISLEETEP
B23: LC3A_28_644 (protein)
chain: SALDEQLEKALKEAKEAAKAGKPAVITLTLPGDANEEDVERILKAMEEIAEILKDVPGSAIIVDIERGVDQEHVDRIIDKAEELEKKYPNVTVIIALDEE
B24: LC3A_127_168 (protein)
chain: ELEELLKKAIKEAEEASDLLDSGNFDYEELKKKLEELIKLLEEALKLDPRVQEALEDAKQALKLLEEMKKASPEEAEALREHASLLLEGIIISLESILLK
B25: LC3A_28_1188 (protein)
chain: SALEKSLEEAIKEAKEKAAKGEPAVITIKVPGDADEEDIEKVIETLEEIAEILKDIPGSAIIIDLDGGVKQEHQDKLMKKAEEIEKKYPNVTVIIALEER
B26: LC3A_23_612 (protein)
chain: MYRVEVIADAILAPEEAAAKEAAALARIEELLEEHKDKIVEAEIEVEREELPDGRTYLTIRITVVVDGTREEAEELANEIVDILDEVLPDAVISSEVEKL
B27: LC3A_free_26_2149 (protein)
chain: DEFIDIVELDKAIDLLEELLKLLEENELASEEEKKLAKEALEEAKKETLESLKKALKLVEELLKLLKKNEKLPEETKKKLIKLAEEAIKHIKENIKIMES
B28: LC3A_3_1729 (protein)
chain: MEERLAEYEARLAALGLSPEVLAAALETIRALLEKGLEEEVERLLAALERVRDADQELLLASLQEILETVKTSKLDKESLAKEVAELIRTFEADAEIIEL
B29: LC3A_28_1184 (protein)
chain: SALEKNLKAALEEAKKAAAAGEPAVVTITVPGDADEEDIEKVIKAMEEIAEILKDIPGSAIIIDLERGVKQEHIDKLAKKAEEIEEKYPNVTVILALEEE

target: MAP1LC3A, Q9H492; experiment: median log2 fold change of GCK-ALFA target abundance (FLAG IP / Myc IP barcode read proportion) (log2 ratio); each designed protein is fused to an ALFA-tag nanobody in HEK293 cells to bring the named protein to FLAG-tagged glucokinase (GCK); Myc marks an untargeted standard; higher = target protein stabilised (more abundant); details: target protein: 3xFLAG-MCP-GCK-ALFA reporter; HEK293 landing pad (RPLP)
Summary of the method: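 An ALFA-nanobody-fused binder library was recombined into HEK293 landing-pad cells and induced with 2 μg mL^−1 doxycycline. Cells were transfected with a plasmid expressing a FLAG-tagged target and a Myc-tagged standard. After 48 h, lysates underwent anti-FLAG and anti-Myc immunoprecipitation, and circular RNA barcodes were reverse transcribed, amplified and sequenced. Target abundance is the per-binder median log2 ratio of FLAG to Myc barcode read proportions. Barcodes needed ≥10^−7 proportion in both replicates, binders ≥3 barcodes per replicate, and a 10^−6 pseudocount was added; the two replicates were pooled.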

Q: Which “median log2 fold change” value does the source give for B1 here?
A: -0.0226

Q: With B2 as the binder, how does the “median log2 fold change” value read?
A: 0.271

Q: For B3, which “median log2 fold change” value is on record?
A: 0.185

Q: Which “median log2 fold change” value does the source give for B4 here?
A: 0.04

Q: B5 was tested. Which “median log2 fold change” value did it give?
A: 0.0145

Q: How did the “median log2 fold change” value turn out when B6 was run?
A: 0.17

Q: With B7 as the binder, how does the “median log2 fold change” value read?
A: -0.0985

Q: B8 was tested. Which “median log2 fold change” value did it give?
A: 0.145

Q: Which “median log2 fold change” value does the source give for B9 here?
A: 0.00609

Q: For B10, which “median log2 fold change” value is on record?
A: 0.412

Q: B11 was tested. Which “median log2 fold change” value did it give?
A: 0.0235

Q: For B12, which “median log2 fold change” value is on record?
A: 0.0288

Q: Which “median log2 fold change” value does the source give for B13 here?
A: 0.182

Q: B14 was tested. Which “median log2 fold change” value did it give?
A: 0.0346

Q: Which “median log2 fold change” value does the source give for B15 here?
A: 0.0702

Q: For B16, which “median log2 fold change” value is on record?
A: -0.231

Q: For B17, which “median log2 fold change” value is on record?
A: -0.239

Q: Which “median log2 fold change” value does the source give for B18 here?
A: 0.0453

Q: For B19, which “median log2 fold change” value is on record?
A: -0.0828

Q: For B20, which “median log2 fold change” value is on record?
A: 0.403

Q: B21 was tested. Which “median log2 fold change” value did it give?
A: 0.177

Q: How did the “median log2 fold change” value turn out when B22 was run?
A: -0.246

Q: With B23 as the binder, how does the “median log2 fold change” value read?
A: -0.366

Q: How did the “median log2 fold change” value turn out when B24 was run?
A: 0.25

Q: For B25, which “median log2 fold change” value is on record?
A: 0.0659

Q: B26 was tested. Which “median log2 fold change” value did it give?
A: -0.101

Q: With B27 as the binder, how does the “median log2 fold change” value read?
A: -0.0408

Q: For B28, which “median log2 fold change” value is on record?
A: 0.328

Q: For B29, which “median log2 fold change” value is on record?
A: 0.298
